Laboratory results: the supplement of paper PMC5499739
Whole data set: some 16,000 sequences, median “Z-score” near -0.37, cut for the highest 2% near 3.2. Some of the results follow.

test system: RBM10 RRM1-ZnF (GST-tagged construct); assay: RNAcompete 7-mer binding Z-score; higher = stronger binding preference
Procedure, shortened: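 GST-tagged RBM10 constructs (20 pmol) were mixed with a designed pool of 241 399 RNAs up to 41 nt (1.5 nmol), transcribed from microarray-derived DNA templates. Mixing was in 1 ml Hepes pH 7.8 buffer with KCl, NaCl, glycerol, DTT, BSA and glutathione Sepharose beads. Binding ran 30 min at 4°C, followed by four 2-min washes at 4°C, and bound RNA was identified by microarray hybridisation. Each heptamer motif received a one-sided Z-score for enrichment across probes containing it.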

Sequence | RNAcompete 7-mer binding Z-score
GGGCUGU | 1.3
UCGUAGU | -0.493
CUUCGAG | -0.681
AAACCCG | -0.854
AGGAGGC | 1.37
ACAUACA | -0.506
GUAUAGG | 2.21
GAAUUGA | 0.186
GCGCUUG | -0.334
CGGGCAC | 0.842
CCAUUGU | -0.655
CCAUCUC | -0.785
GAGGGGA | 3.62
ACGUUUA | -0.655
AGAGUGG | 2.81
CAUCCAC | -0.542
GCACUGU | -0.272
UUCGUAA | -0.802
GUAACAG | 0.923
CCAUGGU | 0.254
UAUCUAA | -0.61
UAACUGU | -0.522
UUUGGGC | 0.923
UGCAUAU | -0.363

Sequence | RNAcompete 7-mer binding Z-score
AUUAGCC | -0.772
CCCUCAA | -0.717
UUACCCU | -0.759
UAGCUGC | -0.604
CGUAUGG | 0.745
AACCCUG | -0.587
GUGGCCU | -0.149
UCAUCGA | -0.584
AGACUAA | -0.435
UCGGCAA | -0.311
CAAUUGA | -0.275
ACAGGAA | 1.25
UCUGGGG | 1.39
GCUUCCU | -0.659
AAGGGCA | 2.78
GCAGCUA | -0.162
ACUGUCG | -0.522
AGGAAAU | 1.28
GGUCCAA | -0.139
CAGGUAG | 2.32
AGGGUGU | 3.11
CACAUAG | -0.334
UAACUGG | 0.355
CAGAUCA | -0.34

Sequence | RNAcompete 7-mer binding Z-score
CAUGGGU | 2.24
UCACACC | -0.698
CUGGUAU | -0.181
AGACCUU | -1.1
CCUCAUC | -0.737
ACAAAUU | -0.642
GAUCCGU | -0.73
GGGCUUA | 0.742
UCAGGAG | 0.959
UAAAACG | -0.178
CACGUUG | -0.155
UCGUUGU | -0.578
GGAGACU | 0.79
CGCUUUU | -0.941
CCCUAAU | -0.698
UUAGUGC | -0.409
UUCGAAG | -0.197
ACGUGUA | 0.00404
GGGCCAG | 1.03
UUCGUGA | -0.496
UAUUCAU | -0.49
UCUUAAC | -0.889
GCCUCGC | -0.448
UUUGCCG | -0.685

Sequence | RNAcompete 7-mer binding Z-score
CGUCCAC | -0.72
ACACAGG | 0.855
ACAGUAU | -0.357
GAGCCCA | -0.561
GGUCACG | 0.647
AAAGUGU | 0.413
CAAAGGG | 2.23
GGACGUA | 0.833
CGACGAG | -0.0285
UUAAGCC | -0.844
AUAGAAA | 0.264
UUCAAUC | -0.769
AGCUUUG | -0.756
CGUGUUG | 0.124
UCGCGCU | -0.688
AUCGCGG | 0.0463
CCUCGUU | -0.798
GCCGAAU | -0.792
CCUGAGC | -0.464
CGUUUUG | -0.422
GGCGCGA | 0.439
AUUCUAA | -0.782
AGACUAC | -0.782
AUCUGCG | -0.626

Sequence | RNAcompete 7-mer binding Z-score
AGGUCGG | 1.26
GGAGGUC | 1.77
CAAACUG | -0.457
UGGUGUC | 0.807
UGUGAGU | 0.472
ACGGAUG | 1.77
GUGGCCG | 0.485
GAUCGGG | 2.27
CGCGAGU | -0.337
AACUCAG | -0.548
GUCAGGC | 0.709
UAUAUCA | -0.639
ACGCGGU | 0.196
CCCUGAC | -0.626
ACCAAUG | -0.454
GCACAGA | 0.0105
UCAUCUG | -0.844
CGGGAUG | 2.48
GAGACAC | -0.0902
GUCUUUU | -0.646
AAUACAU | -0.292
AUGAAGG | 2.96
AUGUCAG | 0.03
AGCAUGU | -0.269

Sequence | RNAcompete 7-mer binding Z-score
UCCUUCU | -0.789
CAAUUUC | -0.857
UGUAUAC | -0.327
AACACGC | -0.425
UAUUAGU | -0.314
GACGACA | 0.0105
UUUGCUU | -0.88
CUAACGU | -0.626
ACCGUCU | -0.873
UAUGUUU | -0.253
AUGCCUG | -0.698
CUUUCCC | -0.798
UACCUUU | -0.867
CUCAGGU | -0.0447
UUUCGGC | -0.587
AUCCAAG | -0.591
CCAACCG | -0.681
ACCGGCG | -0.279
CAAGUGG | 1.39
UUCAGCG | -0.642
GAGGUCG | 0.959
UUGUAGC | -0.509
GUCCUAA | -0.542
GAAGCAU | 0.128

Sequence | RNAcompete 7-mer binding Z-score
AGACUUC | -0.899
GGCCUUU | -0.782
CAUUUUG | -0.896
CGUCGGU | -0.0707
UUGAAGC | -0.318
AACUAAU | -0.412
UUGAUUC | -0.792
CUCUACG | -0.662
UGGGUUG | 3.04
GGGAUAC | 2.5
UCUUGGU | -0.116
AGCGCCU | -0.613
AGACCUC | -1.03
GAGGCAA | 0.784
AUGAAAA | -0.0772
GACCGAU | -0.694
UAACGUU | -0.545
UCAAUCU | -0.678
UCACGUA | -0.327
GCACUUC | -0.483
GGAGACC | 0.859
CUAGGAG | 0.608
UGACUAA | -0.334
AAAGAUC | -0.396

Sequence | RNAcompete 7-mer binding Z-score
AAGACCA | -0.366
GUCAAUC | -0.379
AUCCACC | -0.461
AGGUGCU | 0.852
CCUCCAG | -0.623
ACCUCGU | -0.867
CAAGCCA | -0.717
CUGUGAG | 0.0625
CCGUGAG | -0.441
UAUAUAA | -0.519
AGCAUUG | -0.0804
UAUUAAA | -0.487
UAGUUAG | 0.326
GCCAUAC | -0.668
ACAACGA | -0.175
CUAUGAU | -0.532
GCGGCUA | 0.183
UCCUCGA | -0.824
CUACCAG | -0.724
AACCGUC | -0.668
CUCUGAG | -0.574
CCUUUAG | -0.854
CAAGCUC | -0.698
CAGCCAU | -0.831

Sequence | RNAcompete 7-mer binding Z-score
UAAUAGG | 0.872
GAAAGCC | -0.48
UAAUUAG | -0.383
CACUGCG | -0.0967
CGACUGA | -0.448
CCUGGUU | -0.487
CGUCAAC | -0.561
UCACGCA | -0.571
UCAUGAC | -0.584
CGCCGCC | -0.467
UUUGGCG | 0.209
AACGGAU | 1.58
GCGAGGG | 3.54
CCAUGAA | -0.467
CUAAUGU | -0.529
GGCUGCU | 0.183
CACCGAC | -0.409
AAUUAAA | -0.565
UAGUGCU | -0.292
GAGAACU | -0.158
UCUAUCC | -0.831
UGAAACC | -0.668
GUAAUCC | -0.431
GGUUAGA | 2.79

Sequence | RNAcompete 7-mer binding Z-score
GGGACUU | 1.03
CGGGUCG | 1.54
UAAUCAC | -0.448
ACGUUCA | -0.733
CGCGUAC | -0.659
UUGAGCA | -0.155
CCCGGCA | -0.467
CACCAUC | -0.678
AUAAAAG | 0.0788
GUAGAAG | 2.54
GCCUGGA | -0.246
AACCACG | -0.516
GCCUAAG | -0.383
AAGCCUG | -0.629
CGCAAGA | -0.464
UGCGAAA | -0.0934
GCGAACA | -0.0707
CAGCGGG | 2.5
